Source: PMC4336329 (PLoS ONE, 2015)
Hit rate of the full screen: of about 310,000 compounds, about 2,200 (0.71%) showed an effect of 50% or more. The effect is printed as a negative number. Some of the results follow.

Biological target: human ether-à-go-go-related gene (hERG) potassium channel (human, UniProt Q12809)
Test: primary screen, population patch clamp on CHO cells stably expressing hERG

human ether-à-go-go-related gene (hERG) potassium channel, sequence (Q12809 whole entry, looked up): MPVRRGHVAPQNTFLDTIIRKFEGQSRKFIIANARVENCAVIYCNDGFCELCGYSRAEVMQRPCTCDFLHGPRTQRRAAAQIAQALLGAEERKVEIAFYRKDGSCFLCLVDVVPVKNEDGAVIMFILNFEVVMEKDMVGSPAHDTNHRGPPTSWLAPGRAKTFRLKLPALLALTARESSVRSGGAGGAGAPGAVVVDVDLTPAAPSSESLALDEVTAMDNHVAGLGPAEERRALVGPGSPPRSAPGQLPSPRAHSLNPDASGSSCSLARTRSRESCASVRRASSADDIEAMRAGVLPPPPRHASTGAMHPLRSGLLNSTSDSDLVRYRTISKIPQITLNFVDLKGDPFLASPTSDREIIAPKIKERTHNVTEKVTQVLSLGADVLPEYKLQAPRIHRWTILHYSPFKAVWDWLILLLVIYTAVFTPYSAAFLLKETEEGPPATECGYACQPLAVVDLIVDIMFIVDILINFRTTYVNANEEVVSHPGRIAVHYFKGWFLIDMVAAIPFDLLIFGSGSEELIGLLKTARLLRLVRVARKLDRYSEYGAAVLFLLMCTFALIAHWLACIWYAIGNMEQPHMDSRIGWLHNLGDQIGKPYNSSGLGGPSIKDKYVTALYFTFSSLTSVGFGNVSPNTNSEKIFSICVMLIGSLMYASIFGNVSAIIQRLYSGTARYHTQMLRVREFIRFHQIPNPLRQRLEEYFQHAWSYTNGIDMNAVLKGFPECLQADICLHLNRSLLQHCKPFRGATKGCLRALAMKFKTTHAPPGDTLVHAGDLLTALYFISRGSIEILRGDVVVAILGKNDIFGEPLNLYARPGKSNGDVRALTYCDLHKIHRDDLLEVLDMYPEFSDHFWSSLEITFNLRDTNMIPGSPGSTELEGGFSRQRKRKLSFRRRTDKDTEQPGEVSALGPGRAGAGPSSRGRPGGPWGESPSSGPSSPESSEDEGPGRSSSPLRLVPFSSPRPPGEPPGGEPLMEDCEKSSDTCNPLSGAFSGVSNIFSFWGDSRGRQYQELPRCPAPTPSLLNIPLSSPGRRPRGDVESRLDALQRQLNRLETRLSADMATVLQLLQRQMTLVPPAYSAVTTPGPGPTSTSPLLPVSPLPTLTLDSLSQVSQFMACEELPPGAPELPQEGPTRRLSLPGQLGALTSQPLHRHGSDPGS

SMILES | hERG current change (%, negative = inhibition) at 1uM
O=C(CCNC(=O)c1ccccc1Cl)NCCCSc1ccccc1 | 9.29%
Cn1c(=O)c(=O)n(C)c2cc(N3CCOCC3)c(NS(=O)(=O)c3ccc(F)c(Cl)c3)cc21 | 7.97%
CCCCC(c1nnnn1CS(=O)(=O)c1ccc(C)cc1)N1CCN(c2ccccc2)CC1.Cl (stereo not drawn) | 14%
CCON1C(=O)C(C)(C)N(OCC)C(=O)C1(C)C | 12%
S=C(NC1CCCCC1)N1CCn2cccc2C1c1ccncc1 (stereo not drawn) | 6.91%
Cc1c(OCC(=O)N2CCC(C(N)=O)CC2)ccc2c3c(c(=O)oc12)CCC3 | 9.36%
CCn1cc(C(=O)NCCCOC)c(=O)c2cc(S(=O)(=O)N(C)C3CCCCC3)ccc21 | -2.67%
O=C(Nc1ccccc1)C1=C[C@@H](c2csc3ccccc23)C[C@@H](OCc2ccc(CO)cc2)O1 | 17%
CCOC(=O)c1ccc(N=C2SC(C(=O)NC)CC(=O)N2CCc2ccccc2)cc1 (stereo not drawn) | 11.7%
CCCCc1c(O)nc(SCC(=O)N2CCOCC2)n(-c2ccccc2C)c1=O | 13.5%
CCn1c(C(=O)N2CCCC(C(=O)NCCCc3ccccc3)C2)cc2sccc21 (stereo not drawn) | -0.181%
CCC(=O)N(CCc1ccccc1)Cc1cc2cc3c(cc2[nH]c1=O)OCO3 | 7.52%
COC(=O)c1cc(S(=O)(=O)NCCc2ccc(Cl)cc2)c[nH]1 | 6.44%
C(=N\N1CCN(Cc2cccc3ccccc23)CC1)/c1cccnc1 | -4.62%
Cc1cc(NC(=O)Nc2ccccc2)n(C(C)(C)C)n1 | 16.7%
CC1CN(C(=S)SCCN2C(=O)CCC2=O)CC(C)O1 (stereo not drawn) | 6.36%
CCOC(=O)c1cn2nc(Oc3ccc(C#N)cc3)ccc2n1 | -11.1%
CCC(=O)NC(c1ccc(N(C)C)cc1)c1c(O)ccc2ccccc12 (stereo not drawn) | 8.7%
CC/C(=N\Nc1ccnc2cc(Cl)ccc12)c1ccc(O)cc1 | 15%
CC(Sc1nnc(-c2ccccc2Br)o1)C(=O)N1CCOCC1 (stereo not drawn) | -1.79%
Cc1cc(-c2ccccc2)nc(N(C)NC(=O)C(C)(C)C)c1S(C)(=O)=O | 7.88%
CN(Cc1ccc(F)cc1)C(=O)CNC(=O)C1CCCCC1 | 12%
O=C(COC(=O)COc1ccccc1)Nc1ccc(OC(F)(F)F)cc1 | 11.5%

SMILES | hERG current change (%, negative = inhibition) at 1uM
Cc1ccccc1CNC(=O)C1CCCN(c2cnccn2)C1 (stereo not drawn) | 8.47%
O=C(CSc1nnc(NC(=O)C2CC2)s1)Nc1ccccc1C(F)(F)F | 14%
O=C(O)c1nsc(Cl)c1Cl | 19.4%
COc1ccc2c(c1)O[C@H]1c3ccc(O)cc3OC[C@@H]21 | 9.08%
CCOC(=O)c1c(NC(C)=O)sc2c(OCC(O)CNC(C)(C)C)c(Br)ccc12 (stereo not drawn) | 6.13%
CCCOc1cccc(-c2cc(-c3n[nH]c(=S)n3CC)c3ccccc3n2)c1 | 3.32%
O=C(O)c1ccccc1NCc1ccncc1 | 9.19%
S=C(Nc1cccc2ccccc12)NC1CCCCC1 | 12%
CCOC(=O)Cc1csc(NC(=O)c2ccc(OC)c(OC)c2)n1.Cl | -6.29%
NC(=O)c1nsc(C(=O)N(CCCN2CCOCC2)C(C(=O)NC2CCCCC2)c2ccc(Cl)cc2)c1N (stereo not drawn) | 1.54%
O=c1[nH]c(SCc2n[nH]c(=S)n2-c2ccccc2)nc2sc3c(c12)CCC3 | 15%
CC(=O)c1cc(CN2C(=O)CCC2=O)cs1 | 7.8%
COc1ccc(CC(=O)Nc2ccc(C(C)=O)cc2)cc1 | 20%
CC(=O)NC1CC2CCCC(C1)N2Cc1ccc(C)cc1 (stereo not drawn) | -10.4%
Cl.O=C1c2ccccc2C(=O)N1CC#CCN1CCN(C2CCCCC2)CC1 | -11.7%
S=C(Nc1ccccn1)NC1CCCCC1 | 8.01%
Cc1ccccc1C(=O)Nc1ccnc(-c2ccncc2)n1 | 14.1%
CC(C)N1CCc2c(sc(NC(=O)c3ccc(S(=O)(=O)N4CCOCC4)cc3)c2C#N)C1 | 14.1%
CCNC(=S)NNC(=O)CSc1nc2ccccc2n1C | 7.28%
CC(C)(C)c1ccc(-n2ncc3c2CCCC3NC(=O)CCn2cncn2)cc1 (stereo not drawn) | -5.58%
COc1ccc(/C(C)=N/NC(=O)c2cc(-c3cccnc3)nc3ccccc23)cc1 | 5.97%
CCCCCCOc1ccc(N2C(=O)CC(SC(=NCC)NCC)C2=O)cc1 (stereo not drawn) | 16.3%
CCN(CC)C(=O)[C@]1(c2ccccc2)C[C@@H]1CN.Cl | 1.54%

SMILES | hERG current change (%, negative = inhibition) at 1uM
CC(C)NC(=O)C1CCN(Cc2cccc(Oc3ccccc3)c2)CC1.O=C(O)C(=O)O | 8.88%
CCc1nnc(NC(=O)[C@@H](NC(=O)c2ccc(C(C)(C)C)cc2)C(C)C)s1 | 12.3%
COc1ccc(C2c3c4c(n(C)c3CCN2C)CCN(C)C4c2ccc(OC)cc2)cc1.Cl (stereo not drawn) | -0.844%
O=C(c1ccncc1)N1CCN(S(=O)(=O)c2cccc(F)c2)CC1 | 5.77%
COc1ccc(OC)c(C(=O)COC(=O)C2CC3CCCC(C2)C3=O)c1 (stereo not drawn) | 10.9%
CC(C)c1cc(-c2n[nH]c(=S)n2Cc2ccccc2)cs1 | 17.1%
COc1cc(NS(=O)(=O)c2ccc(N)cc2)nc(OC)n1 | 9.86%
CCCC(=O)N1CCN(c2nc3ccccc3s2)CC1 | -9.61%
Br.C=CCN1CCc2c(cc(O)c(O)c2Br)[C@@H](c2ccccc2)C1 | 3.89%
CCCCN1C(=O)/C(=C2/Sc3ccccc3N2C)S/C1=N\c1ncn[nH]1 | 6.9%
Cc1nnc(SCC(=O)NC2CC2)n1CCc1ccccc1 | 7.08%
CN(C)C(=O)c1cc(C(=O)c2ccccc2Br)c[nH]1 | 9.15%
CCn1cnc2c1c(=O)n(CC(=O)OC)c(=O)n2Cc1ccccc1 | 16.3%
COc1ccccc1C1(CCN=Cc2ccc(N(C)C)cc2)CCOC(C)(C)C1 (stereo not drawn) | 2.4%
Cc1ccc(S(=O)(=O)NCC(=O)N(CC(=O)NCc2ccco2)Cc2cccs2)cc1 | -30.4%
COc1ccc(OC)c(-c2nc(CN(C)C(C)c3ccncn3)c(C)o2)c1 (stereo not drawn) | 6.56%
Cc1ccc(C(=O)Nc2cccc(C(=O)N/N=C/c3ccccc3F)c2)cc1 | 11.5%
CCOC(=O)C1(C(F)(F)F)N=C(C(F)(F)F)Nc2cc(C)c(C)cc21 (stereo not drawn) | 7.95%
COc1ccc(Nc2ccc(N3C(=O)CCCC3=O)cc2[N+](=O)[O-])cc1OC | 24.6%
COCc1cc(=O)n2[nH]c(C(C)(C)C)cc2n1 | 14.6%
COc1ccc(N2CCN(C(=O)c3c(-c4c(F)cccc4Cl)noc3C)CC2)cc1 | 14.4%
Cc1[nH]c2ccc(C(=O)N3CCN(c4ccc(F)cc4)CC3)cc2c1C | 10.4%
C=CCn1c(SCC(=O)NCCOC)nnc1-c1cc2c(s1)CCC(CC)C2 (stereo not drawn) | 13.5%

SMILES | hERG current change (%, negative = inhibition) at 1uM
CN/C(=C/[N+](=O)[O-])NCCSCc1ccc(CN(C)C)o1.Cl | 13.2%
COc1ccc(C(=O)Nc2ccc3c(c2)C(=O)c2ccccc2C3=O)cc1OC | 15.9%
CC(NC(=O)c1cc2c(s1)CS(=O)(=O)C2)c1ccccc1 (stereo not drawn) | 14.7%
C[C@H](NC(=O)c1ccccc1)C(=O)N1CCC2(CC1)NCCc1[nH]cnc12 | 11%
C=CCOc1c(Br)cc(CNc2ccc3[nH]c(=O)[nH]c3c2)cc1OCC | 15.1%
COCCNC(=O)[C@@H]1CSC2c3ccccc3C(=O)N21 (stereo partly drawn) | 4.28%
Cc1ccc(NC2c3ncccc3C(=O)N2C2CCCCC2)cc1 (stereo not drawn) | 9.66%
CN(C)S(=O)(=O)c1cccc(NC(=O)COC(=O)c2cn(-c3ccccc3)nc2-c2ccccc2)c1 | 19.7%
CN(C)S(=O)(=O)c1ccc(C(=O)Nc2nc3ccccc3[nH]2)cc1 | 9.87%
Cn1c(SCC(=O)N2CCOCC2)nc2sc3c(c2c1=O)CCCC3 | 2.47%
CN(C)c1nc(SCC#N)nc(N2CCOCC2)n1 | 12.3%
CCn1ncc(CNC(=O)c2cccc([N+](=O)[O-])c2)c1C | 0.549%
CN(C)S(=O)(=O)c1ccc(NC(=O)Cc2ccc(S(=O)(=O)N3CCOCC3)s2)cc1 | 8.77%
COC(=O)C[C@H]1c2ccccc2S(=O)(=O)N1c1cccc(OC)c1 | 3.39%
CCC(=O)Nc1sccc1C(=O)OC | 8.58%
CC1CN(CCc2ccccc2)c2nc3c(c(=O)[nH]c(=O)n3C)n2C1 (stereo not drawn) | -4.08%
CCCN1CCc2c(sc(NC(=O)c3ccc(S(=O)(=O)N4CCCC4)cc3)c2C(N)=O)C1 | 16.4%
COc1ccc(CCNC(=O)NC2CCCCC2)cc1OC | 6.75%
COc1cccc(CN2CCC(n3nccc3NC(=O)CCCc3ccccc3)CC2)c1 | 0.786%
CN1C(=O)c2ccc(NC(=S)NC(=O)C(C)(C)C)cc2C1=O | 23%
Cc1cc(NCCCO)n2nc(-c3cccs3)cc2n1 | 1.45%
